The list shows a part of the results.
B1: chr15:38448722:38448723:-_ENSMUSG00000037458_ENSMUST00000152833|mus_hu|FALSE|FALSE (ssRNA)
RNA: GGGAGUUCUACAGUCCGACGAUCAGAUAACGGCCCAAAGAGUCGGGUAAAGCGUCUUCUCUUUUUCGGCGGAAUUUUUAAAGAGGGAUGUGGUUACCUUGAGCAGAAAUACCCAAGGCGGCCUGGGCCAUAGGCUGCGGGAACCAACAGAGGAUUGAGCAUCA
B2: chr15:76588000:76588001:-_ENSG00000140374_ENST00000560595|hu_hu|motif|central (ssRNA)
RNA: GGGAGUUCUACAGUCCGACGAUCGGACACUUCACCUCCAAGGCGUGUGGCUGCAGUAAUGGUAUUUAAAGUAAUGGGUGCGGGGGAAUCAUUUGCAUGCUCAGCUAUUACCAGGGUACUCUGAAAUCGUAGCAAUGAGGCCGCCAACAGAGGAUUGAGCAUCA
B3: chr1:58468927:58468928:-_ENSMUSG00000026034_ENSMUST00000148330|mus_mus|mus_mus_mus_hu_False|1_1 (ssRNA)
RNA: GGGAGUUCUACAGUCCGACGAUCAAUUACUGAAAAAGAUGUUCAUUACCUUAGCUAUGUACUUAAUGAACCAAAUUACCCAAACAAAAUAAACAUGGCAAUAUAAAAAUGUUAAGAAUUUACAAAGCUGUACAAAAAGACUGACAACAGAGGAUUGAGCAUCA
B4: chr14:102368134:102368135:+_ENSG00000078304_ENST00000445439|hu_hu|hu_hu_hu_mus_True|68_108 (ssRNA)
RNA: GGGAGUUCUACAGUCCGACGAUCAAGGGGUUCCAUGAUCUUCACAAACUCUGAUGGUUCAAUUACAUCUAAAAUCUCUUCUAAUUCAUUUAAGAACAUUACUUCUUUUGGACUGUGAGUCUUUGGCCAGUAUUUGAGAAGUGCCAACAGAGGAUUGAGCAUCA
B5: chr6:50807893:50807894:+_ENSG00000008196_ENST00000393655|hu_mus|FALSE|FALSE (ssRNA)
RNA: GGGAGUUCUACAGUCCGACGAUCCUCGGACACGGCUUUAGCAGGAAACUCUGUUUCACAAAUAUACCCGAAAUCCCGAGCUAAGUGAACAGCUUCCCCUUCUACCAGUGAGGUGAGUAACGUGACAUUUGCUGCUUUGCGCCUCAACAGAGGAUUGAGCAUCA
B6: chr17:45747064:45747065:+_ENSG00000108424_ENST00000290158|hu_hu|hu_hu_hu_mus_True|28_28 (ssRNA)
RNA: GGGAGUUCUACAGUCCGACGAUCGCCCACAGUCCACGCUGUUGUGUCUCGAACAACUACACUGGGGUCUUUCAUUAGUUCUAUUAGGGUGGGCAUAGCCUGUAUGACUAGUGGUUUCAGUUGAUUAGGCUCUGGUCCUUCCAACAACAGAGGAUUGAGCAUCA

target: T1, UNK ZnF1-3 (human, UniProt Q9C0B0 31-174); experiment: nsRBNS (natural sequence RNA bind-n-seq); RBNS binding buffer (assumed for nsRBNS): 25 mM Tris pH 7.5, 150 mM KCl, 3 mM MgCl2, 0.01% Triton X-100, 500 ug/ml BSA, 20 U/ml SUPERase-In, 4 C; UNK is unkempt and MSI1 is Musashi-1; names of the RNAs are library labels; protein concentration not given here; high values mean tight binding
T1 sequence: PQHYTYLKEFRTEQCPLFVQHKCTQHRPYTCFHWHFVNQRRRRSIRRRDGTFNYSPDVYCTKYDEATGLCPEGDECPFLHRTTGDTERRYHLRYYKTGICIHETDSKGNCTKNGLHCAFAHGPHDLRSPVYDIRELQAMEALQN

| Binder | binding signal [enrichment R] |
| --- | --- |
| B1 | 1.08 |
| B2 | 1.36 |
| B3 | 1.59 |
| B4 | 0.735 |
| B5 | 0.683 |
| B6 | 0.58 |
